Values joined by “and” are separate entries in the source; they are usually repeats but may differ in a detail not shown here. Identical values can stand only once. Among all 410,000 compounds or so, about 6,400 (1.6%) were called active. The inconclusive results got no clear call from the source; some entries with a clear call stand among them for comparison. Calls come from the whole dose curve; as a rule, active = well fitted inhibition curve with a large enough effect; inconclusive = small, poorly fitted or top-dose-only effect; inactive = no such curve, though single readings can be large or run the other way. Potencies of inconclusive entries are doubtful fits and often do not repeat.
The compounds below were run against Glucagon-like peptide 1 receptor (Homo sapiens) (UniProt P43220) (assay: qHTS of GLP-1 Receptor Inverse Agonists (Inhibition Mode)). Details: HEK293 GLP-1R CRE-luciferase, luminescence, 24 h, GLP-1R form is constitutively active; activity change, negative = inhibition: at 38.3 µM (top of the series) unless noted.
Sequence of UniProt P43220 (P43220 whole entry, looked up): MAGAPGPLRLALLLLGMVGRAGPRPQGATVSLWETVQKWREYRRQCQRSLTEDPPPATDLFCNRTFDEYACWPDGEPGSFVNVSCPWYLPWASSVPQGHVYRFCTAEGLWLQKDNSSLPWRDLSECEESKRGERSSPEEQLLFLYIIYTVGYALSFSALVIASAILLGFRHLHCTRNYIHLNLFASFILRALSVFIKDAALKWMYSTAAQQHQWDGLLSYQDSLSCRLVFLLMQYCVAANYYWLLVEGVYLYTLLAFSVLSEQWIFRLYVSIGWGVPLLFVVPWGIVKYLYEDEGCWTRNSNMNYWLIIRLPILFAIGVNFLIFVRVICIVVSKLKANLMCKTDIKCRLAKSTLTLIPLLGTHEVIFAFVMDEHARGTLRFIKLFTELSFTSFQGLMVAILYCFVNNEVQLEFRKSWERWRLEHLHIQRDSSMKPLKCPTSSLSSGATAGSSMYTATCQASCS
Procedure, shortened: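 HEK293 cells stably co-expressing a cAMP-responsive luciferase reporter and constitutively active GLP-1R were seeded, incubated 12 h, then exposed to compounds for 24 h at 37 C. Luminescence was read 12 min after detection reagent; inverse agonists lower signal.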
`NC(=O)CC(NC(=O)Cc1cccc2ccccc12)c1ccc(NCCOc2ccccc2)c([N+](=O)[O-])c1` (stereo not given) was tested, and the Potency was inconclusive: 12.6 µM [inhibitor, single point].
For `Cc1oc(C(C)(C)C)cc1C(=O)N1CCN(c2ccc(C(F)(F)F)cn2)CC1`, the Potency was inconclusive: 14.1 µM [inhibitor, single point].
In the case of `O=C(CSc1nc2ccccc2n1Cc1ccccc1)N/N=C/c1ccco1`, the “activity change, negative = inhibition” value was inactive: 4.8%.
For `O=C(CCCN1C(=O)S/C(=C/C=C/c2ccccc2)C1=O)Nc1ccc(C(=O)O)cc1`, the “activity change, negative = inhibition” value was inactive: -4.71%.
For `COc1ccccc1-c1ccc(NC2CCCC2)nn1`, the Potency was inconclusive: 28.2 µM [inhibitor, single point].
With `CSc1ccc(CN(C)C(=O)CSCC(=O)Nc2ccc(C)cc2)cc1` the Potency was inconclusive: 7.08 µM [inhibitor, partial curve, poor fit].
`Cn1c(-c2sc(=S)n(-c3ccccc3)c2N)nc2ccccc21` was tested, and the “activity change, negative = inhibition” value was inactive: -3.26%.
For `CCC1Oc2ccc(Cl)cc2N(CC(=O)NCCc2ccc(Cl)cc2)C1=O` (stereo not given), the “activity change, negative = inhibition” value was inactive: -3.22%.
In the case of `O=C(Nc1ncc2c(n1)-c1ccccc1CC2)c1cccs1`, the Potency was inconclusive: 12.6 µM [inhibitor, single point].
With `Cc1cc(=O)[nH]c(SCC(=O)Nc2nc(-c3ccccc3)c(-c3ccccc3)o2)n1` the “activity change, negative = inhibition” value was inactive: 5.85%.
For `Cc1ccc(S(=O)(=O)c2ccc(-n3nc(C)cc3N)cc2)cc1`, the Potency was inconclusive: 28.2 µM [inhibitor, single point].
`O=S1(=O)CC(N2CCC(c3ccccc3)CC2)CN1Cc1ccc(F)cc1` (stereo not given) was tested, and the Potency was inconclusive: 11.2 µM [inhibitor, partial curve, poor fit].
`COc1ccc(N2CC(NC(=O)c3ccc(S(=O)(=O)N4CCCCC4)cc3)CC2=O)cc1` (stereo not given) was tested, and the “activity change, negative = inhibition” value was inactive: 11.1%.
For `S=C(Nc1ccccc1Cl)N1CCN(Cc2ccccc2)CC1`, the Potency was inconclusive: 1 µM [inhibitor, full curve, poor fit].
`CCOc1cc(/C=C\[N+](=O)[O-])ccc1OCC(=O)Nc1ccccc1C` was tested, and the Potency was inconclusive: 1.26 µM [inhibitor, partial curve, poor fit].
`CCOc1ccc(CNC(=O)c2ccc3c(c2)nc2n3CCOC2)cc1OC` was tested, and the “activity change, negative = inhibition” value was inactive: 34.4%.
In the case of `CCc1cccc(NC(=O)C(Cc2ccccc2)n2cccc2)c1` (stereo not given), the Potency was inconclusive: 28.2 µM [inhibitor, single point].
In the case of `COc1ccccc1CCC(=O)N(C)C1CCCN(Cc2ccccc2F)C1` (stereo not given), the Potency was inconclusive: 11.2 µM [inhibitor, single point].
`Cc1ccsc1/C=N/NC(=O)c1nnn(-c2nonc2N)c1-c1ccccc1` was tested, and the Potency was inconclusive: 12.6 µM [inhibitor, single point].
With `Cc1ccccc1-c1ccc2c(c1)O[C@@H](CN(C)Cc1ccc(C(=O)O)cc1)[C@@H](C)CN([C@H](C)CO)S2(=O)=O` the “activity change, negative = inhibition” value was inactive: -5.91%.
For `CC1=C(C(=O)Nc2ccc(F)cc2F)C2(CCN(C(C)C)CC2)OC1=O`, the “activity change, negative = inhibition” value was inactive: 3.97%.
In the case of `CC(C)CC(=O)N(c1nnc(-c2cccnc2)s1)C1CCCC1`, the Potency was inconclusive: 22.4 µM [inhibitor, single point].
For `CCc1ccc(NC(=O)CN(c2cc(C)cc(C)c2)S(=O)(=O)c2c(C)[nH]c(=O)[nH]c2=O)cc1`, the Potency was inconclusive: 11.2 µM [inhibitor, partial curve] and inconclusive: 11.2 µM [inhibitor, single point].
In the case of `Cc1cc(=O)oc2ccc(OC(C)C(=O)O)cc12` (stereo not given), the “activity change, negative = inhibition” value was inactive: 12.5%.
`Cc1ccc(CNC(=O)c2ccc3nc(SCc4ccc(F)cc4)[nH]c3c2)cc1` was tested, and the Potency was inconclusive: 11.2 µM [inhibitor, partial curve, poor fit].
With `COc1cccc(-c2nc(SCC(=O)NC3CCCC3)c(-c3ccc(C)cc3)[nH]2)c1` the Potency was inconclusive: 22.4 µM [inhibitor, single point].
In the case of `CC1(C)CC2CC(C)(CN2C(=O)c2cc(-c3ccc(F)cc3)on2)C1` (stereo not given), the Potency was inconclusive: 2.24 µM [inhibitor, full curve, poor fit].
In the case of `Cc1ccc(/C=C/c2ccc(=O)n(Cc3ccc(Cl)cc3Cl)n2)cc1`, the “activity change, negative = inhibition” value was inactive: 3.47%.
With `CCN(CC)C(=O)CSc1nc(-c2ccc(C)cc2)nc2c1Cc1c(CO)cnc(C)c1O2` the “activity change, negative = inhibition” value was inactive: -4.37%.
`CC(C)(C)C(=O)c1c(N)[nH]c(C(=O)c2ccccc2)c1-c1c(F)cccc1F` was tested, and the Potency was inconclusive: 20 µM [inhibitor, single point].
For `CCS(=O)(=O)N1CC(=O)N(c2ccc(Cl)cc2)C(C)(C(=O)NC2CCCCC2)C1` (stereo not given), the “activity change, negative = inhibition” value was inactive: 2.99%.
For `Cc1ccc2c(c1)c1c(n2CC(O)CN2CCCCCC2)CCCC1` (stereo not given), the Potency was inconclusive: 7.94 µM [inhibitor, partial curve, poor fit].
With `CN(C)[C@@H](CO)c1nnc([C@H](CCC(=O)O)NC(=O)C2CCNCC2)o1` the “activity change, negative = inhibition” value was inactive: 10.8%.
`C[C@@H]1CN([C@H](C)CO)C(=O)c2cc(NS(=O)(=O)c3ccc(F)cc3)ccc2O[C@@H]1CN(C)Cc1ccc(Cl)c(Cl)c1` was tested, and the Potency was inconclusive: 10 µM [inhibitor, partial curve, poor fit].
`COc1ccc(S(=O)(=O)N2CCCCCC2)cc1C(=O)NCc1ccco1` was tested, and the “activity change, negative = inhibition” value was inactive: -19.7%.
For `O=c1cc(N2CCCCC2)c(-c2ccccc2)nn1Cc1cccc(F)c1`, the Potency was inconclusive: 7.08 µM [inhibitor, partial curve, poor fit].
`CCCCC(C(=O)NC1CCCC1)N(Cc1ccco1)C(=O)Cn1nnc(-c2ccc(F)cc2)n1` (stereo not given) was tested, and the Potency was inconclusive: 2.24 µM [inhibitor, partial curve, poor fit].
For `Cc1ccc2nc3c(c(N)c2c1)CCN3C`, the Potency was inconclusive: 11.2 µM [inhibitor, partial curve, poor fit].
For `CN(NC(=O)C(=O)NCc1ccco1)C(=O)Nc1ccc(Cl)cc1`, the Potency was inconclusive: 28.2 µM [inhibitor, single point].
In the case of `COc1ccc(S(=O)(=O)C(C#N)c2nc3ccccc3nc2N2CCCC(C)C2)cc1` (stereo not given), the Potency was inconclusive: 10 µM [inhibitor, single point].
In the case of `COc1ccc(/C=C/C(=O)Nc2nc(-c3cccs3)ns2)cc1OC`, the Potency was inconclusive: 14.1 µM [inhibitor, single point].
`Cc1ccc(-c2nc(CS(=O)CC(=O)NCc3ccc4c(c3)OCO4)c(C)o2)cc1` (stereo not given) was tested, and the Potency was inconclusive: 17.8 µM [inhibitor, partial curve, poor fit].
For `COc1ccc(C2CC(=O)c3cnc(N)nc3C2)c(OC)c1` (stereo not given), the Potency was inconclusive: 28.2 µM [inhibitor, single point].
`CCN(CC)CCCN=Cc1c(O)n(-c2c(C)cccc2C)c(=O)c2ccccc12` was tested, and the Potency was inconclusive: 17.8 µM [inhibitor, partial curve, poor fit].
`COc1cccc(NC(=O)CN2C(=O)NC(C)(C3CC3)C2=O)c1` (stereo not given) was tested, and the “activity change, negative = inhibition” value was inactive: 1.39%.
For `Cc1ccc(OCCOCCN2CCCC2)c(Br)c1`, the Potency was inconclusive: 22.4 µM [inhibitor, single point].
For `COc1ccc(CCNC(=O)CN2C(=O)NC3(CCCCC3C)C2=O)cc1` (stereo not given), the “activity change, negative = inhibition” value was inactive: -1.96%.
In the case of `Cc1ccc(C(=O)/C=C/NNC(=O)c2ccccc2O)cc1`, the Potency was inconclusive: 3.16 µM [inhibitor, full curve].
With `CCc1ccc(S(=O)(=O)Nc2cccc(-c3ccc(N4CCOCC4)nn3)c2)cc1` the “activity change, negative = inhibition” value was inactive: -5.44%.
In the case of `CC(C)(C)c1ccc(C(=O)NCC(c2ccc(Cl)cc2)N2CCOCC2)cc1` (stereo not given), the Potency was inconclusive: 11.2 µM [inhibitor, partial curve, poor fit].
`CCOc1ccc(NS(=O)(=O)c2ccc3c4c(cccc24)C(=O)N3)cc1` was tested, and the “activity change, negative = inhibition” value was inactive: 14.9%.
With `Cc1ccc(CN(Cc2ccco2)C(=O)COc2ccc(C)c(C)c2)cc1` the Potency was inconclusive: 10 µM [inhibitor, single point].
With `CNS(=O)(=O)c1ccc(CNC[C@H]2O[C@@H](n3cnc(C(N)=O)n3)[C@H](O)[C@@H]2O)cc1` the “activity change, negative = inhibition” value was inactive: 8.01%.
For `COc1ccccc1CNC(=O)c1cc(-c2cc(Cl)ccc2C)n[nH]1`, the Potency was inconclusive: 12.6 µM [inhibitor, partial curve, poor fit].
`CCc1nn2cc(-c3ccccc3)nc2s1` was tested, and the Potency was active: 5.62 µM.
For `CC(=O)N1c2ccccc2Sc2ccc3ccccc3c21`, the Potency was inconclusive: 10 µM [inhibitor, partial curve, poor fit].
In the case of `Cc1ccsc1CNC(=O)c1c(-c2ccccc2)noc1C`, the “activity change, negative = inhibition” value was inactive: -13.1%.
`O=C1CCCN2N=C(SCC(=O)N3N=C(c4ccc(Br)cc4)CC3c3ccc(F)cc3)SC2=N1` (stereo not given) was tested, and the Potency was inconclusive: 2.82 µM [inhibitor, full curve].
With `CN(C)CCCN1c2ccc3ccccc3c2Sc2cccc(Cl)c21` the Potency was inconclusive: 10 µM [inhibitor, partial curve].
`O=C(NCCc1cnn(-c2ccccc2)c1)c1cc(COc2c(F)cccc2F)on1` was tested, and the Potency was inconclusive: 2.24 µM [inhibitor, full curve, poor fit].
For `CO/N=C(/CS(=O)Cc1ccccc1Cl)c1ccc(Cl)cc1Cl` (stereo not given), the Potency was inconclusive: 3.55 µM [inhibitor, full curve, poor fit].
For `Cc1ccc(C)c(N2CCN(C(=O)CSCc3ccccc3Cl)CC2)c1`, the Potency was inconclusive: 14.1 µM [inhibitor, single point].
With `Cc1oc(-c2cccc(Cl)c2)nc1CS(=O)(=O)CC(=O)NC1CCCC1` the Potency was inconclusive: 7.94 µM [inhibitor, partial curve, poor fit].
`O=C(Nc1ncc([N+](=O)[O-])s1)c1cccs1` was tested, and the Potency was inconclusive: 10 µM [inhibitor, partial curve, poor fit].
In the case of `CC(C)(C)c1ccc(C(=O)Nc2onc3c2CCCC3)cc1`, the Potency was inconclusive: 12.6 µM [inhibitor, partial curve, poor fit].
% is set by controls: 0 for no effect and ±100 for the full control effect; potency is the fitted concentration of half-maximal effect; tags give direction and shape of the fitted curve.
Note: nearly all actives have a fitted effect of over 55% in size.
